Data reported in PubChem BioAssay AID1963828 (Molecular Pharmacology Branch, DTP, NCI, 2024).
For part of its entries the source gives two or more results. They are shown here; other results are not. The source may hold further records. The values listed for one entry are repeats across runs, samples, wells, individuals or studies. Brackets with × say how often a value occurs here. One block for each compound: values may come before it.

Test system: 991263-137-R1-J2-PDC complex spheroid viability
Assay: Anticancer human tumor 991263-137-R1-J2-PDC patient-derived colon adenocarcinoma cell line growth inhibition [POLQ]
Conditions: for viability, T/C: stronger effect = lower value
Method: Multicellular complex tumor spheroid response to Polymerase (POL) inhibitors (novobiocin, ART-558, RP6685) in combination with a variety of drugs and investigational agents in selected tumor cell lines
The POL inhibitors (novobiocin, ART-558, and RP6685) were evaluated both individually and in combination with standard of care and investigational anticancer small molecules within a complex spheroid model of solid tumors. . Complex spheroids include a stromal component modeled by human endothelial cells (HUVEC) and fibroblasts modeled by human mesenchymal stem cells (MSCs). The concentration ranges selected for each drug and investigational agent were based upon clinically achievable concentrations if the clinical Cmax of the agent was known.
Compounds. The drugs and investigational agents: novobiocin (NSC847541), ART-558 (NSC835418), RP-6685 (NSC848927), peposertib (NSC802822), ceralasertib (NSC780249), elimusertib (NSC800525), camonsertib (NSC841442), AZD-1390 (NSC803789), olaparib (NSC753686), talazoparib (NSC767125), rucaparib (NSC756644), sotorasib (NSC818433), MRTX-1133 (NSC836407), SN-38 (NSC673596), topotecan (NSC609699), epotoside (NSC141540), doxorubicin (NSC123127), gemcitabine (NSC613327), 5-fluorouracil (NSC19893), paclitaxel (NSC125973), vemurafenib (NSC761431), MSA-2 (NSC828583), SN-011 (NSC837082), adavosertib (NSC754352), prexasertib (NSC758257), carboplatin (NSC241240) and oxaliplatin (NSC266046), were obtained from the National Cancer Institute (NCI) Developmental Therapeutics Program Chemical Repository (21). The FDA-approved anticancer drug set is available from the Developmental Therapeutics Program at https://dtp.cancer.gov/organization/dscb/obtaining/. […] The stock solutions were prepared in dimethyl sulfoxide (DMSO, Sigma-Aldrich, St. Louis, MO, cat. D2650), except for the platinum compounds which were prepared in saline (Quality Biological, Gaithersburg, MD, cat. 114-055-101), at 800-fold the tested concentration and stored at -70 degrees C prior to their use. All drugs and investigational agents were tested over a range starting from a high concentration at or near the clinical Cmax and decreasing in half-log increments. If the clinical Cmax for an agent had not been determined, the highest concentration tested was 10 microM, except for SN-38, which was tested at a high concentration of 1 microM.
Cell Culture. All cells were maintained in an incubator at 37 degrees C and 5% CO2 with 95% humidity. The PDC lines were cultured according to standard operating procedures established by the NCI PDMR (https://pdmr.cancer.gov). Table 3 of the manuscript, lists the cell lines along with the number of the three cell types plated to form the mct-spheroids and media for tumor cell growth. After thawing, all PDC lines, except 997537-175-T-J1-PDC and 415267-285-R-J2-PDC, were cultured in Matrigel-coated flasks prepared with a working solution of 1X Ham's F-12 nutrient mix, without supplementation (Thermo Fisher Scientific, cat. 11765054), 100 U/mL penicillin-streptomycin (Thermo Fisher Scientific, cat. 15140122), and 2.5% Matrigel (Corning Inc., Corning, NY, cat. 354248) for the first three passages. The two PDC lines 997537-175-T-J1-PDC and 415267-285-R-J2-PDC were cultured on uncoated flasks. The 857933-349-R-J2-PDC line was cultured in 6C/Colon 1B media containing advanced DMEM/F-12 (Thermo Fisher Scientific, cat. 12634028), 10 mM HEPES (Thermo Fisher Scientific, cat. 15630080), 1X GlutaMAX supplement (Thermo Fisher Scientific, cat. 35050061), 0.1 mg/mL primocin (InvivoGen, San Diego, CA, cat. ant-pm-2), 10% defined fetal bovine serum, heat inactivated (HyClone Laboratories Inc., Logan, UT, cat. SH30070.03HI), 50% L-WRN conditioned media (ATCC, cat. CRL-3276), 1.25 mM N-Acetyl-L-cysteine (Sigma-Aldrich, cat. A9165), 10 mM nicotinamide (Sigma-Aldrich, cat. N0636), 1X B-27 supplement (Thermo Fisher Scientific, cat. 17504044), 1X N-2 supplement (Thermo Fisher Scientific, cat. […]
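Note: spheroids exposed to compounds for 7 days before readout.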
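Throughout, for viability, T/C: 100% = DMSO vehicle control viability.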

IC50 (compound alone): 627 nM, 1.32 µM, 7.71 µM
Structure (SMILES): Nc1ccn(C2OC(CO)C(O)C2(F)F)c(=O)n1 (stereo not given)

Structure (SMILES): COc1cc2cc(C(=O)CCC(=O)O)sc2cc1OC
viability, T/C (compound alone 1 µM): 127%, 95.9%, 92.4%
viability, T/C (compound alone 3.16 µM): 86.6%, 100%, 113%

Structure (SMILES): COc1cccc(OCCCN)c1-c1cc(Nc2cnc(C#N)cn2)n[nH]1
viability, T/C (compound alone 0.1 µM): 45.8%, 89.4%, 85.8%

Structure (SMILES): O=C(c1cc(Cc2n[nH]c(=O)c3ccccc23)ccc1F)N1CCN(C(=O)C2CC2)CC1
viability, T/C (compound alone 10 µM): 74.9%, 104%, 97.2%

Structure (SMILES): C=CCn1c(=O)c2cnc(Nc3ccc(N4CCN(C)CC4)cc3)nc2n1-c1cccc(C(C)(C)O)n1
viability, T/C (compound alone 0.316 µM): 74%, 107%, 111%

Structure (SMILES): Cc1cccc(N(C)C(=O)C2C(O)CCN2c2nc(C)cc(C(F)(F)F)c2C#N)c1 (stereo not given)
viability, T/C (compound alone 0.316 µM): 103 (2×), 99.7, 95.8, 105, 109, 82.6, 96.3, 89.6, 106, 98.8, 113, 101%
viability, T/C (compound alone 1 µM): 94.4, 104, 100, 95.9, 107, 72.5, 91.9, 91.8, 98.1, 101, 93.4, 99, 103%

Structure (SMILES): O=c1[nH]cc(F)c(=O)[nH]1
viability, T/C (compound alone 3.16 µM): 90.3%, 70.6%, 96.3%

Structure (SMILES): COC1C(OC(N)=O)C(O)C(Oc2ccc3c(O)c(NC(=O)c4ccc(O)c(CC=C(C)C)c4)c(=O)oc3c2C)OC1(C)C (stereo not given)
viability, T/C (compound alone 0.1 µM): 89.6, 92.6, 102, 104, 101 (2×), 98, 109, 82.4, 88.4, 116, 108%
viability, T/C (compound alone 1 µM): 108, 102, 103, 97, 105, 98.3, 118, 107, 92.3, 115, 89, 92.8%
viability, T/C (compound alone 3.16 µM): 93.2, 104, 93.4, 108, 96.8, 98.7, 88.8, 95.3, 81.5, 99.6, 98.8, 96.6%
viability, T/C (compound alone 10 µM): 89.6, 94.5, 93.6, 102, 93.3, 113, 101 (2×), 79.9, 89.3, 90.2, 89.8%

Structure (SMILES): C=CC(=O)N1CCN(c2nc(=O)n(-c3c(C)ccnc3C(C)C)c3nc(-c4c(O)cccc4F)c(F)cc23)C(C)C1 (stereo not given)
viability, T/C (compound alone 3.16 µM): 107%, 92.8%, 123%

Structure (SMILES): CNCc1ccc(-c2[nH]c3cc(F)cc4c3c2CCNC4=O)cc1
viability, T/C (compound alone 3.16 µM): 81% and 108% (2×)

Structure (SMILES): CCc1cc2c(N3CCc4c(cc(Cn5ccnc5)cc4-c4cn(C)nc4C(F)(F)F)C3=O)cc(C)nc2c(OC)n1
viability, T/C (compound alone 0.316 µM): 104%, 120%, 86.7%
viability, T/C (compound alone 1 µM): 68.5%, 98.5%, 97%

Structure (SMILES): CCCS(=O)(=O)Nc1ccc(F)c(C(=O)c2c[nH]c3ncc(-c4ccc(Cl)cc4)cc23)c1F
viability, T/C (compound alone 1 µM): 70.9%, 107%, 106%

Structure (SMILES): COc1cc(C2c3cc4c(cc3C(OC3OC5COC(C)OC5C(O)C3O)C3COC(=O)C23)OCO4)cc(OC)c1O (stereo not given)
viability, T/C (compound alone 0.316 µM): 113%, 93.2%, 86.6%

Structure (SMILES): CC(C)n1c(=O)n(C)c2cnc3cc(F)c(-c4ccc(OCCCN5CCCCC5)nc4)cc3c21
viability, T/C (compound alone 10 µM): 84.2%, 72.9%, 103%
